# Experimental data published in the supplement of paper PMC3334620.
# In all, about 33,000 sequences were measured (“E-score (-0.5 to 0.5)”: median about -0.035, highest 2% from about 0.34 on). The list shows a part of the results.
# Biological target: T1, Mot3 (UniProt P54785)
# T1 sequence: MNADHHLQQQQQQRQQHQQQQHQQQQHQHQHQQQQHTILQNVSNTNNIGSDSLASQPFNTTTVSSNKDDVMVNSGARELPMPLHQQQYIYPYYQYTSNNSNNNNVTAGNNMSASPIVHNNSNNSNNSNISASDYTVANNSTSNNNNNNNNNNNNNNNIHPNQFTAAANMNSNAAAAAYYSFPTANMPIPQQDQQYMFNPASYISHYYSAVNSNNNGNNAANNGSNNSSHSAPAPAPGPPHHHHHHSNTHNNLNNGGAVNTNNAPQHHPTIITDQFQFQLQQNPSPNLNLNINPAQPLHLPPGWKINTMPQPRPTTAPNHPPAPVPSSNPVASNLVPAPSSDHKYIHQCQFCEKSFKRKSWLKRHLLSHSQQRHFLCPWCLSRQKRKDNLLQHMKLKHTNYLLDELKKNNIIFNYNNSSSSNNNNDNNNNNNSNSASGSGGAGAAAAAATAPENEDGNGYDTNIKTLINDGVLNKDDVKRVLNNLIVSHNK
# Assay: PBM E-score (8-mer binding enrichment) (E-score (-0.5 to 0.5)); higher = stronger / more preferred TF binding; most listed sequences are background and not binding sites
# Conditions: protein concentration: 200 nM; construct: GST-full length
# Protocol: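 Universal 'all 10-mer' protein binding microarrays (Agilent AMADID 015681) probed with GST-tagged S. cerevisiae TFs (full-length or DBD) made by in vitro transcription/translation (PURExpress), about 100-200 nM. Bound TF was detected with fluorescent anti-GST. Each ungapped 8-mer (which stands for itself and its reverse complement) is scored by the PBM enrichment score (E-score), a modified Wilcoxon-Mann-Whitney statistic from -0.5 to +0.5, computed with the Universal PBM Analysis Suite. Scale: above 0.35 generally sequence-specific binding.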
row,Sequence,PBM E-score
1,CTTATTAA,-0.00143
2,CAGGGCAG,-0.00935
3,AGTATTCG,-0.0676
4,CTAGGTTC,-0.0266
5,GGTACACA,0.271
6,CACAGATG,-0.0112
7,AATCCGTG,0.0623
8,CAGGAGAA,-0.315
9,CGTGCGGA,-0.137
10,ACCCAGAC,-0.17
11,ACATTCTC,-0.0819
12,ACACCGCG,0.157
13,CCTGTGAG,0.136
14,CCTTATCA,0.22
15,GAACCGGC,-0.157
16,ACGTTCGC,-0.0916
17,AGAACGGC,-0.127
18,CCATGAAC,-0.185
19,TATGGACA,0.0217
20,AATCAACG,0.0839
21,ACTGGCTC,-0.192
22,AGTCGTGC,0.0377
23,AGGTCCCC,-0.216
24,CAGGTGCG,0.0191

row,Sequence,PBM E-score
1,ACTCAATC,-0.0617
2,TAGTTAGA,-0.0788
3,ATGTTAGC,0.207
4,AGTTGCAC,-0.06
5,GATTCAGC,-0.174
6,ACATGTTG,0.368
7,CCAAATCC,-0.244
8,ACATTTCC,0.193
9,GCGAGGGA,-0.298
10,CTATCCGA,-0.136
11,CAGACTGG,-0.0997
12,CCACATCC,-0.242
13,TCCTATAA,0.172
14,TGAAGAAA,0.0144
15,GAAGACAA,-0.0357
16,CAATAATG,0.065
17,GCCTAGAA,0.141
18,ATGAACGC,0.145
19,GTCGAAAC,0.0124
20,CAAAAATA,0.01
21,GGTTGTAC,-0.00579
22,CTACAGGC,0.354
23,CACTTCGA,-0.0174
24,GCCACGCC,-0.189

row,Sequence,PBM E-score
1,ATAGCGTC,-0.011
2,CAAACGGG,-0.231
3,AGGGGTGA,-0.257
4,ACTATCGA,-0.0372
5,ACTTTGGC,-0.192
6,ATAAAACG,0.0166
7,CTCGCTGA,-0.0573
8,CCGCAGCG,-0.276
9,GAACCGTA,-0.249
10,GCGTAAAC,0.306
11,TGTTCCAA,0.083
12,CAAAGGTA,0.212
13,GGCACAAC,0.309
14,GTTCCTAA,0.431
15,CCAACTCA,-0.125
16,ACATTGAC,0.235
17,GCATGAGA,0.032
18,CGAGCTCC,0.0363
19,CCTCACAC,-0.116
20,ACTACTGC,-0.122
21,CAGAACCC,-0.0803
22,CTGCCCTC,-0.0391
23,GACTAGTC,-0.258
24,AGTATACC,-0.0499

row,Sequence,PBM E-score
1,GTACCCAA,0.0155
2,CACATCTA,0.191
3,AGAACCGA,-0.0525
4,GCGACCAC,-0.292
5,CAGGGAAA,-0.0721
6,AAGCTGGC,-0.141
7,AGGTTCGG,-0.235
8,GATATGGA,-0.0716
9,AGGCGACA,-0.148
10,ATACATTA,0.27
11,ATCCGTGG,-0.202
12,AATCCGAA,-0.227
13,GCATTTCA,-0.0517
14,AGACCGGC,-0.0434
15,AATGTCCC,-0.134
16,CTCTTAAA,0.217
17,CTTATATC,0.0252
18,AGGATAGA,-0.0589
19,CCTAATCA,0.159
20,AGATCCCC,-0.201
21,AGCCCATG,-0.163
22,ATGGCATA,-0.0737
